# Data published in PubChem BioAssay (NCI).
#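 96-well plates; 48 h exposure; 5 concentrations. Endpoints by linear interpolation between flanking doses. Not reached: highest tested concentration assigned. GI50 = concentration required for 50% inhibition of growth. The concentration for full growth arrest is given as TGI.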
# Tested on: NCI-H322M lung
# Assay: NCI anticancer screen, dose series, 48 h
SMILES,GI50,TGI
FC(F)(F)c1ccc(-c2ncc(-c3ccc(C(F)(F)F)cc3)c(NCc3cc(C(F)(F)F)cc(C(F)(F)F)c3)n2)cc1,5.16 µM,65.5 µM
C/C(=N/NC(=S)N1CC2CCC(CC2)C1)c1cnccn1,,9.36 µM
CCCCCCCCCC/C=C/C=O,,> 100 µM
O=C1Oc2cc3c(c4cccc1c24)OCN(c1ccccc1)C3,,> 100 µM
CC(C)(CN1CCCCC1)C(=O)CC(SCCN)c1ccc(Cl)cc1 (centres undefined),,6.42 µM
c1ccc2cc(CNCCCCNCCCNCc3ccc4ccccc4c3)ccc2c1,,2.89 µM
NC(=N\N=C/c1ccc(Cl)cc1Cl)/C(N)=N\N=C/c1ccc(Cl)cc1Cl,6.24 µM,> 90.6 µM
O=Cc1ccc(-c2ccc(-c3ccc(C=O)o3)[se]2)o1,> 64.1 µM,> 100 µM
C=C(CN1CCN(c2ccccc2C(F)(F)F)CC1)c1ccc(C(=O)Nc2ccccc2N)cc1,11.4 µM,> 89.1 µM
NC(CO)c1ccc(OCc2ccccc2)cc1 (centres undefined),,> 100 µM
